Experimental data: the supplement of paper PMC11417369
± gives the standard deviation of the averaged measurements. The list shows a part of the results.

tested on: PfAP2-I AP2 domain 3 (GST-tagged); test: gcPBM binding intensity (ln(normalized median fluorescence intensity)); higher = stronger DNA binding
Method in brief: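 An Agilent 4 × 180k array carrying primer-extended double-stranded 36-bp intergenic genomic probes and negative controls received GST-tagged P. falciparum DNA-binding domains expressed in E. coli, about 25 μg on average, for 1 h. The binding buffer contained 1× PBS, 1% milk, 0.2 mg/ml BSA, 0.5% salmon testes DNA and 0.03% Triton X-100. Binding intensity is the top Masliner-normalised natural-log median intensity across replicate spots of either probe orientation, read after Alexa488 anti-GST antibody staining and a 488 nm scan.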

Sequence	gcPBM binding intensity (ln)
AAACATTTATACAAAGCACACAATTTTTAACTTTTA [CACACA_site2627]	8.22 ± 0.3
AATAAAAAAAAAAAAAAAAAAAAAAACCTGAGGAGT [CACACA_negctrl_site1140]	7.59 ± 0.71
AACCTTTTAAGAGTTGCACACGTACAAAAAAAAAAA [CACACA_site9159]	8.61 ± 0.47
TATATTAAACAATATACACACATTAATGTAGACATA [CACACA_site8889]	7.7 ± 0.46
TTATAATATATATCTGCATGTTGCTTTGGGGCTTTA [TGCATGCA_site712]	7.84 ± 0.77
GAAAATTCTTAAGGCACACACATATAAGATATATAC [CACACA_site6410]	9.88 ± 0.22
TTTCAGACAAAAAAAAAAAAAAAAAAGAGGAGAATA [CACACA_negctrl_site254]	7.47 ± 0.29
CCACTTGTGTAATGTTGTACAAAAATAAATATATTT [XGTACX_site4598]	7.84 ± 0.52
CTATGAACACACACATGTACATATATTAACTCGCTA [XGTACX_site8805]	7.93 ± 0.43
ATAATTAAAAATAATATATATATAATATGATATTAT [GTGCAC_negctrl_site194]	7.33 ± 0.46
TACACATACAGACATACACACATACACATATACACA [CACACA_site6918]	8.04 ± 0.18
AAAAAAAAAAAAAACACACACACACGCACATATACA [CACACA_site7288]	8.48 ± 0.57
TTTTTTCTTTTTTTTTTTAATTATAAACATGATATT [GTGCAC_negctrl_site144]	7.46 ± 0.36
TAAATATATATAACATGTACATAAAATATATATATA [XGTACX_site4431]	8.85 ± 0.27
TATCTTCATTGTTGACGTACAGTATTTCTAAACGTT [XGTACX_site3439]	8.11 ± 0.29
TACATATTTTATAGCACACAAATAATAATATGTAGT [CACACA_site688]	8.775 ± 0.021
TTTTTGTTAAAATAAATATTATAAATATATTAATAT [TGCATGCA_negctrl_site239]	7.28 ± 0.18
AAAAAAAAAAAAATGTGGACACAATTGTGTGTTTGT [XGTACX_site3563]	7.97 ± 0.61
GTTGTGGAAAGAAGTTGTACATAAAATATTATATAA [XGTACX_site4352]	7.92 ± 0.49
AGGCCTTTTAGTATTTCACACACGTAAATGCGTATA [CACACA_site1108]	9.04 ± 0.79
CATAAAAATGAACATACACACATATATATATATATA [CACACA_site2498]	9.33 ± 0.51
TTGCTTTCTTTTTTTTGTACTCATATCTACTATCAT [XGTACX_site7711]	8.17 ± 0.78

Sequence	gcPBM binding intensity (ln)
CGAGCAAGACGGGGTGCACACAAACTAATATGCCGA [CACACA_site7936]	10.7 ± 0.59
TACCTTTATTAATAAAGTACATTAATCTGTGTATAC [XGTACX_site8720]	7.71 ± 0.44
ATTATTATGTAGAAGGTGCTATGTTCTATAAATATA [GTGCAC_site9545]	8.31 ± 0.35
AAATATAAAAAAAAAAGTACTTTGTTACTTTTCTAT [XGTACX_site6034]	7.35 ± 0.49
TTTTTATTAAATAAAGCACACACAACAACTTTTCAC [CACACA_site9372]	9.275 ± 0.021
AACTGCAAAAAAAGACGTACAAATTATTAATTGCAA [XGTACX_site8929]	8.13 ± 0.78
TAACCATAAGAAGATTGTACATAATAAAAGTATTCT [XGTACX_site1117]	7.67 ± 0.7
AAAATAAATATAACCACACACGAAAGAGAGAGAAAA [CACACA_site3272]	7.83 ± 0.79
ATATATATATATATATGTACATACCCAATTGTGTAA [XGTACX_site6352]	9.47 ± 0.36
ATTTAAAATGGTTATACACACATAAAAGGGGAAATG [CACACA_site2649]	8.15 ± 0.72
TACAGACATACATACACACATACATATATATATATA [CACACA_site1940]	9.27 ± 0.38
ATACAAATTAAGCCTCAAGTTCTTTTTTTTAACATA [XGTACX_negctrl_site580]	7.65 ± 0.55
ATATAACATGGACACACACACATATATATATATTAT [CACACA_site6135]	8.14 ± 0.5
GGTGCACCCATATACACACACAAATACAATGATAAA [CACACA_site1132]	9.99 ± 0.56
AAAAAAAAGAATTATTGTACAAAAGAACAATAAATA [XGTACX_site1368]	7.25 ± 0.26
GTGAAATTATATTTTTGTACATATATTATATATTAT [XGTACX_site3387]	7.76 ± 0.38
ATCGAAGGGGTACAAAATAAAAATAATTCTTTCAAA [TGCATGCA_negctrl_site373]	8.145 ± 0.035
GTATATATCTAAAAATATATATATATATATATATAT [CACACA_negctrl_site788]	9.37 ± 0.72
AAGTGTTATGAAATATGTACACATATATTATATATA [XGTACX_site6022]	7.84 ± 0.32
TATAAATAAATATGGAGTACCAAAAAAATTATAAAA [XGTACX_site7581]	7.81 ± 0.58
TACAAATGAGAAATATGTACATAAAAAAAAAAAAAT [XGTACX_site801]	7.95 ± 0.43
TTGTTCTTTCAAATTATACACACCAAAAAAAAAAAA [CACACA_site3070]	7.97 ± 0.4
